# Results taken from article PMC12136788.
# The list shows a part of the results.
# T1: UNK ZnF1-3 (human, UniProt Q9C0B0 31-174)
# T1 sequence: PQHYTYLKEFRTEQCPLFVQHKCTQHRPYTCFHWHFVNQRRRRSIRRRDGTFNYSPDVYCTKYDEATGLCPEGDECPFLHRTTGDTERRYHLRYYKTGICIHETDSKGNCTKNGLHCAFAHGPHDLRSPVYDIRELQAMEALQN
# B1: chr2:183853844:183853845:-_ENSG00000061676_ENST00000360982|hu_hu|FALSE|FALSE (ssRNA)
# RNA: GGGAGUUCUACAGUCCGACGAUCGUGAAUGUGGAAAACUUCAUCCCGAAAGAGAGAGAGGCAAGAGCUACUUUGAAGAGCUAGUUUCCAAAGGUUCAGUGCUGUAGCGUCAGUAUUUAGGAUCCCAUGGCACAAAAUAAAGCCCAACAGAGGAUUGAGCAUCA
# B2: chr2:131104119:131104120:+_ENSG00000136718_ENST00000452955|hu_mus|FALSE|FALSE (ssRNA)
# RNA: GGGAGUUCUACAGUCCGACGAUCGAUGACAGAGGGGUUAUUUAGAUCCCUCCAGUCUCCACUUAGGAUUAGUGAAUCUGUCUGUGACAAGUCUCUGAUCCAGGAUUCCAAGUCUGCAUUCUGACUGGCAAGUAGCUCAGCUCACAACAGAGGAUUGAGCAUCA
# B3: chr4:62047152:62047153:+_ENSMUSG00000066150_ENSMUST00000084526|mus_hu|FALSE|FALSE (ssRNA)
# RNA: GGGAGUUCUACAGUCCGACGAUCUCCAGCCAUUUCUCCAGCUGUAUUGAUCACCAAACCGGAAAACAGUAGUUCCACAUUCUUAAAGCCAAAGUAGAAGGUCAUAGGCAUCAUCAUCAUGCUGCUGUCUCCUCCACCAUGGGACAACAGAGGAUUGAGCAUCA
# B4: chr1:156905105:156905106:-_ENSG00000132694_ENST00000368194|hu_mus|FALSE|FALSE (ssRNA)
# RNA: GGGAGUUCUACAGUCCGACGAUCUCCUGACACUGAGAAGGCCUAGGCUUCAGAGGUGGGCAGGCCCUGGAGCUUGACAGCACUGGAAUCUGGGAGACCUCCCUGCCAGUGGGACAUAAACAAUCAUGGCCCUGUGCGGGGCUGCAACAGAGGAUUGAGCAUCA
# B5: chr1:244855233:244855234:+_ENSG00000121644_ENST00000302550|hu_mus|hu_hu_hu_mus_True|28_38 (ssRNA)
# RNA: GGGAGUUCUACAGUCCGACGAUCCAUCAGAUGGUAGGCGUUGCCCUUAUACUCUUUCCCCAGUUCUUCUACAAUUUUCUCUAUAUCAUCUUCUAGAAAGUCCGUGCUCCCUAAAACAACAGCUUCUUUAAAUUUAAAUGUUUCCAACAGAGGAUUGAGCAUCA
# B6: 26019943_26020063_1296_ncRNA_ENSMUSG00000025730_ENSMUST00000166619|mouse|control|control (ssRNA)
# RNA: GGGAGUUCUACAGUCCGACGAUCAGGAGGGAUUAGUGGGGUUUCCCAGGUGCAUCAACGGCUCUUCUCCUAGGUCUUAGGAGCUGAAACCUUGCCUAUGCCCAGCAUACUGAUCACCUUUGUCAGAUAUGGAAGCCGGAGCCACAACAGAGGAUUGAGCAUCA
# B7: chr1:163116782:163116783:-_ENSG00000143248_ENST00000313961|hu_mus|FALSE|FALSE (ssRNA)
# RNA: GGGAGUUCUACAGUCCGACGAUCCCAUGAAAGGGGACACUUGCAUCUGUUUUUCUUUUCAGCCUGGUUAAAAUAGCAGUCUAUCACCUAUUCUUUGCACAGACAGCUUUAUGUUAAACUGGAUAUUUUUGUGACUUAGACUGACAACAGAGGAUUGAGCAUCA
# B8: chrX:20248820:20248821:+_ENSMUSG00000001924_ENSMUST00000001989|mus_mus|mus_mus_mus_hu_True|58_78 (ssRNA)
# RNA: GGGAGUUCUACAGUCCGACGAUCGGCGAAGUCCGUCACCACAAAGUCAGGUUCUGCCAGUGAUGCUACCAAGGAUUUAAAACUAAUCUUCUUAGGUACUUUGACCUGACUGACGAUGCCUCCACGGAUGUAGUCGGAGAAGUUCAACAGAGGAUUGAGCAUCA
# B9: 125022445_125022653_1941_CDS_ENSMUSG00000014444_ENSMUST00000067252|mouse|control|control (ssRNA)
# RNA: GGGAGUUCUACAGUCCGACGAUCCAGCAGCGUCUGGGUCUGUGUGGGCUCAGUGUCGGCCACCGUGACCUCCAAAAGCGCCGCAGGCACCUUUUGCUUCUUCAGCAGCUUCUCCUUCACGAACUGACGCAGAAGGAGCCAGAACAACAGAGGAUUGAGCAUCA
# B10: 86455588_86455959_2559_CDS_ENSMUSG00000013033_ENSMUST00000141158|mouse|control|control (ssRNA)
# RNA: GGGAGUUCUACAGUCCGACGAUCCACUGAGGAGGACACGUCCCCAGCAUAGAUAGAGCCCCGUGUGUGGCGGGCCAGCUCACUGGCAAUGUUGGCCGCAUUCUCUCCACUCUUGAUCUUCUGGGCUACUUGGUUGACCCAGGGCAACAGAGGAUUGAGCAUCA
# B11: chr2:176857102:176857103:-_ENSG00000144320_ENST00000272748|hu_hu|FALSE|FALSE (ssRNA)
# RNA: GGGAGUUCUACAGUCCGACGAUCGGAAUACAGAAUUAAUCUUCCAACCCAUAAUUUUUGUAAUCUCUGAUUUUUUUCCCUAAAUUCUUCCAAUGCUUGAAUUUCCUUAUCUAUACUUUCUAGAACUUCUACAGUUGAAGGUUUCAACAGAGGAUUGAGCAUCA
# B12: 15742733_15743951_717_CDS_ENSG00000079785_ENST00000233084|human|control|control (ssRNA)
# RNA: GGGAGUUCUACAGUCCGACGAUCAAACUUGUCAGUACCUAGGUCCAAAGAGGCCUGCAUGGUAGACCACCCGACCCUGCAUAACCCUUGGUCAUGACAGGAUACUUCAUAGUAGUGUUUCCCUUUCAUUAAUCCUUUAGUAGCCAACAGAGGAUUGAGCAUCA
# B13: chr1:78428520:78428521:-_ENSG00000162613_ENST00000370768|hu_mus|motif|central (ssRNA)
# RNA: GGGAGUUCUACAGUCCGACGAUCCCCUAAAGGAUUUACUGGGCCCCCAAUCUUCUCUUCUAUGAGUUGUCGAGCAUAGUCGGUUUGCUGUGGAGUGCCCCGAAUUGUAAAUAACUUCAUAUUGGGAUCUGCAUUAGGUGGAGGCAACAGAGGAUUGAGCAUCA
# B14: chr12:72179577:72179578:+_ENSG00000080371_ENST00000261263|hu_mus|FALSE|FALSE (ssRNA)
# RNA: GGGAGUUCUACAGUCCGACGAUCGUUUAGCACUUAAGGUCUCUGCAGUGUUAUAAACGUAAUUGAAAAUACUGUUAAUUCUAUAACUCCAUUGGUAAAAUGAUGUGACUUGGAAUAUGGCAGUCUUCAUGUUGAGGGCAAUGACAACAGAGGAUUGAGCAUCA
# B15: chrX:141883135:141883136:-_ENSMUSG00000041688_ENSMUST00000112835|mus_mus|motif|central (ssRNA)
# RNA: GGGAGUUCUACAGUCCGACGAUCCUUGCAUCAAUCUGAUUUCUAACUUAACACAUCUCUAAACGUCUAUCUCCCUUACCGGAUACCCUCCCACCCUUAACUUCCCUAGACCCCUGAAAACUCAUCUUAAUGGUACUAUCUGUACAACAGAGGAUUGAGCAUCA
# B16: 9950488_9954092_829_3pUTR_ENSG00000101558_ENST00000400000|human|control|control (ssRNA)
# RNA: GGGAGUUCUACAGUCCGACGAUCGUUUAUCCGAAUGUGCUACCUUUCUGAGCCUUAAACCUUCAUCUCUCAGGUGCCGAUUUUCUUCUGAUAGCUUCAUCAUUUCUCCCUGAAGUCUUUUACACUCUUCCAUUAGUUUCCUUGCAACAGAGGAUUGAGCAUCA
# B17: chr17:65740002:65740003:+_ENSG00000130935_ENST00000581375|hu_hu|hu_hu_hu_mus_False|88_108 (ssRNA)
# RNA: GGGAGUUCUACAGUCCGACGAUCAACCCGUUCUUGCUCCCUGGACGCAAGAGUUCAUUCAUAUUAAAAAAAAUAUAUAUCCAUCAAGUUAGGUGUGGUGGCCACACCUUUACUCCCAGCACUUUGGGAGGUGGAUCUCUGAGUCAACAGAGGAUUGAGCAUCA
# B18: chr15:64983782:64983783:-_ENSG00000180304_ENST00000326005|perfect_dup|motif|central (ssRNA)
# RNA: GGGAGUUCUACAGUCCGACGAUCCCUGGAACAAUGUGCCUGCAGCACUGGAGCUGGGGACAGUUACUCAAAGGCAAAAUACGGCUGUCCUGGGUGUUUAUCAUCCUCGGCGGCUCUGCUCAGGGUGGGAGGAGGCGGCGCAGGCAACAGAGGAUUGAGCAUCA
# B19: 20693198_20693318_2348_3pUTR_ENSMUSG00000043004_ENSMUST00000160013|mouse|control|control (ssRNA)
# RNA: GGGAGUUCUACAGUCCGACGAUCUGCAUUUGUACAUUAAUAAUCAUUCCGGUACCCUCUUCUCUCCCACCCCAGGUCUGAACUUUAAUUGGACAUAGUUAACUCCUUUAGCUGAAAGCCCAUAAAAGAGUUAAGAGAAAUAUCCAACAGAGGAUUGAGCAUCA
# B20: chr1:220276048:220276049:+_ENSG00000067704_ENST00000302637|hu_hu|hu_hu_hu_mus_True|48_68 (ssRNA)
# RNA: GGGAGUUCUACAGUCCGACGAUCGCAAAUUGCCUGGUUGGCGGGAAUUGUCCAAGGCUGGGUGGUCCAGACCAAAACGCUAACAGGAGAUGAACCAUCUGUAAGAGACUCCAACUUCGGAGGAGGUCUCAGGAGGGGGAAUCUCAACAGAGGAUUGAGCAUCA
# B21: chrX:98862621:98862622:+_ENSMUSG00000034160_ENSMUST00000044475|mus_hu|mus_mus_mus_hu_False|88_88 (ssRNA)
# RNA: GGGAGUUCUACAGUCCGACGAUCCUGCAUCUCCUUUAGAGUGUUUCCCAUAUUGGAGUAGGCAUCAGCAAAGGUAGGACUGAUUCGAAUAGCCUCCUUAUAAUGCAUCAGAGCUUCCUGCAGUUUUCCCUGCUGCUGCAGUACCAACAGAGGAUUGAGCAUCA
# B22: chr22:19452774:19452775:-_ENSG00000070010_ENST00000399523|hu_hu|hu_hu_hu_mus_False|48_88 (ssRNA)
# RNA: GGGAGUUCUACAGUCCGACGAUCCUUCUCAUUGUAGUUGAUAGCAAUCACAUCCCCAGUCGUCAGACAGGCGAAGUUUCUCAAUGCGUUUUCUAAUACCGCUUUAGGGUUGGUAAUAUCCAGGAAGUCUGGGCUCUGAGGCUGCAACAGAGGAUUGAGCAUCA
# Biological target: T1, UNK ZnF1-3
# Test: nsRBNS (natural sequence RNA bind-n-seq); RBNS binding buffer (assumed for nsRBNS): 25 mM Tris pH 7.5, 150 mM KCl, 3 mM MgCl2, 0.01% Triton X-100, 500 ug/ml BSA, 20 U/ml SUPERase-In, 4 C; UNK is unkempt and MSI1 is Musashi-1; names of the RNAs are library labels; protein concentration not given here; high values mean tight binding
row,Binder,binding signal
1,B1,2.09 enrichment R
2,B2,0.437 enrichment R
3,B3,1.37 enrichment R
4,B4,1.51 enrichment R
5,B5,1.58 enrichment R
6,B6,1.18 enrichment R
7,B7,0.921 enrichment R
8,B8,0.856 enrichment R
9,B9,0.609 enrichment R
10,B10,0.6 enrichment R
11,B11,0.711 enrichment R
12,B12,0.821 enrichment R
13,B13,1.32 enrichment R
14,B14,1.12 enrichment R
15,B15,2.29 enrichment R
16,B16,0.306 enrichment R
17,B17,0.943 enrichment R
18,B18,1.02 enrichment R
19,B19,1.53 enrichment R
20,B20,1.83 enrichment R
21,B21,0.851 enrichment R
22,B22,0.729 enrichment R
